Source: patent EP2351737A1, “3-Amino-1-arylpropyl indoles and aza-substituted indoles” (F. Hoffmann-La Roche AG, priority 2005, dated 2007)

How the values were obtained:
[1] = biological target: T1, Human Serotonin Transporter (hSERT) (Homo sapiens, UniProt P31645); assay: Human Serotonin Transporter (hSERT) Scintillation Proximity Assay (SPA), competition with [3H]-Citalopram; format: binding; conditions: membranes of HEK-293 cells expressing recombinant hSERT, Ki by Cheng-Prusoff
T1 construct: expressed in transfected cells; membranes prepared from them

[2] = biological target: Human Norepinephrine Transporter (hNET) (Homo sapiens, UniProt P23975); assay: Human Norepinephrine Transporter (hNET) Scintillation Proximity Assay (SPA), competition with [3H]-Nisoxetine; conditions: membranes of HEK-293 cells expressing recombinant hNET, Ki by Cheng-Prusoff

Substance: 7-Chloro-5-(3-methylamino-1-phenyl-propyl)-1H-indole-3-carbonitrile [Compound 20]
- pKi SERT [1]: 7.86
- pKi NET [2]: 7.41
